The campaign covered roughly 360,000 compounds. About 520 (0.14%) were called active. The shares of active, inactive and inconclusive entries below differ from those in the screen. Calls come from the whole dose curve; as a rule, active = well fitted inhibition curve with a large enough effect; inconclusive = small, poorly fitted or top-dose-only effect; inactive = no such curve, though single readings can be large or run the other way. No potency is given beside an inconclusive call; the fits are too rough.
The compounds below were run against Rap guanine nucleotide exchange factor 3 (Homo sapiens) (UniProt O95398) (assay: qHTS for Antagonist of cAMP-regulated guanine nucleotide exchange factor 3 (EPAC1): primary screen). Conditions: EPAC1 GEF assay, Rap1b-BODIPY-GDP exchange fluorescence; activity change, negative = inhibition: at 115 µM (top of the series).
Sequence of UniProt O95398 (O95398 whole entry, looked up): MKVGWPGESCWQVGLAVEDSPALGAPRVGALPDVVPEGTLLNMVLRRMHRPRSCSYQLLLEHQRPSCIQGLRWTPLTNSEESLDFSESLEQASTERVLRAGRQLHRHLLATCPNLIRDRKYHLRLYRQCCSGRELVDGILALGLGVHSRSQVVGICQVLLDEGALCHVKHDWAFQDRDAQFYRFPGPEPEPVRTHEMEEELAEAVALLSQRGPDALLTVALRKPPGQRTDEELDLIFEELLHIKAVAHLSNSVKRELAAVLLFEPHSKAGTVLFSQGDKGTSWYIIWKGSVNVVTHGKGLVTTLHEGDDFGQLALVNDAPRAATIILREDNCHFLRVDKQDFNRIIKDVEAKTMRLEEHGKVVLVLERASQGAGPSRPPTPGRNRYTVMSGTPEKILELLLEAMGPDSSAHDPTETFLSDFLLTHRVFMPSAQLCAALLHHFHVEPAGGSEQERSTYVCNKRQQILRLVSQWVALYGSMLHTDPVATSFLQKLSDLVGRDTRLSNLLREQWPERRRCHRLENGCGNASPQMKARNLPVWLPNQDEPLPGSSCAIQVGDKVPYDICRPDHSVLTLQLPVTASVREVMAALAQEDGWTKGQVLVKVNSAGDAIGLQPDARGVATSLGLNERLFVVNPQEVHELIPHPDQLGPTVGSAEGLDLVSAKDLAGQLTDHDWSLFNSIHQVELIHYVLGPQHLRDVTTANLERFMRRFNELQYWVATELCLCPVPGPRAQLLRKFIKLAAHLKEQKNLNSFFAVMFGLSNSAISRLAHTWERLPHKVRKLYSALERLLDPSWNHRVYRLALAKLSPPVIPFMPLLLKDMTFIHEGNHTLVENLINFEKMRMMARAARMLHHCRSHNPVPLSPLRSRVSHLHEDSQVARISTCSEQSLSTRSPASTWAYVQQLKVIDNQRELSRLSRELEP
Note: nearly all actives have a fitted effect of over 50% in size.
Potency is the fitted concentration of half-maximal effect; tags give direction and shape of the fitted curve.
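Throughout, for activity change, negative = inhibition: plate controls were vehicle for no effect and positive control for full effect.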

| Compound | Potency | activity change, negative = inhibition |
| --- | --- | --- |
| O=C(O)c1[nH]c2ccccc2c1C(c1c(F)cccc1Cl)c1c(C(=O)O)[nH]c2ccccc12 | inconclusive [inhibitor, partial curve] |  |
| COc1ccccc1NC(=O)CCc1nc2sc3c(c2c(=O)[nH]1)CCCC3 | inconclusive [inhibitor, single point] |  |
| O=[N+]([O-])c1ccc(/C=C/C2=NN(c3ccccc3)C(c3ccco3)C2)cc1 (stereo not drawn) |  | inactive: -16.4% |
| O=C(O)/C=C/c1ccc(O)c(O)c1 |  | inactive: -4.87% |
| Cc1nnc(N2C(=O)C(O)=C(C(=O)c3ccco3)C2c2ccc(C(C)(C)C)cc2)s1 (stereo not drawn) |  | inactive: -23.2% |
| O=C(Nc1cccnc1Cl)C1=NN(c2ccccc2)C(=O)CC1 | inconclusive [inhibitor, partial curve, poor fit] |  |
| O=C(NCc1ccccc1Cl)c1cccc2c1C(=O)c1ccc(-c3ccc(OC(F)(F)F)cc3)cc1S2(=O)=O | inconclusive [inhibitor, single point] |  |
| Cc1ccc(C)c(CN2CCC(CNC(=O)Nc3cccc(Cl)c3C)CC2)c1 | inconclusive [inhibitor, single point] |  |
| CC1=CC(C)(C)N(C(=O)c2ccc(F)cc2)c2cc3c(cc21)OCO3 |  | inactive: -19.5% |
| CC(=O)c1cccc(-c2cnc3c(NC=O)cc(-c4ccc(F)cc4)cn23)c1 |  | inactive: -8.53% |
| COc1ccc(CNc2nc(-c3ccccc3)nn2C(=O)c2cccs2)cc1 |  | inactive: -6.96% |
| COc1ccc(-c2cc(C(=O)N3CCCCC3)no2)cc1OC | inconclusive [inhibitor, single point] |  |
| COCCN=C1N[C@@H](c2cccc(C(F)(F)F)c2)C(C(=O)OC)=C(C)N1Cc1ccccc1 | inconclusive [inhibitor, single point] |  |
| CCc1ccc2[nH]c(=O)c(CN(Cc3ccco3)C(=S)NCC3CCCO3)cc2c1 (stereo not drawn) | inconclusive [inhibitor, partial curve] |  |
| Cc1cc(C)cc(N=Cc2ccc([N+](=O)[O-])s2)c1 | inconclusive [inhibitor, single point] |  |
| CCOc1ccc(NC(=NCc2ccc3c(c2)OCO3)SC2CC(=O)N(c3ccc(C(=O)O)cc3)C2=O)cc1 (stereo not drawn) | active: 28.2 µM |  |
| CSc1nnc(-c2ccccc2)c(-c2ccccc2)n1 |  | inactive: 5.85% |
| C[N+](C)(C)CCCCCCCCCC[N+](C)(C)C |  | inactive: -9.32% |
| O=C(NC(=S)Nc1ccc(S(=O)(=O)N2CCCC2)cc1)C1CC1 | inconclusive [inhibitor, partial curve] |  |
| COc1ccccc1Oc1coc2cc(O)ccc2c1=O | inconclusive [inhibitor, single point] |  |
| CCCc1nn(C)c2c(=O)[nH]c(-c3cc(S(=O)(=O)Nc4ccc(NC(C)=O)cc4)ccc3OCC)nc12 | inconclusive [inhibitor, partial curve] |  |
| CC12CCC3c4ccc(OCC(=O)O)cc4CCC3C1CCC2=O (stereo not drawn) |  | inactive: -0.949% |
| Cc1ccccc1NC(=O)C(=O)NCCc1ccccc1 | inconclusive [inhibitor, full curve, poor fit] |  |

| Compound | Potency | activity change, negative = inhibition |
| --- | --- | --- |
| CCc1nc2c(OCCC3CCCCC3)cccn2c1N(C)C(=O)c1cccs1 |  | inactive: -20.4% |
| NC(=O)COC(=O)CC(c1ccccc1)c1ccccc1 |  | inactive: -6.84% |
| [O-]/[N+](=C/c1ccc(F)cc1)c1ccc(Cl)cc1 |  | inactive: 7.89% |
| COc1ccc(OC)c2sc(NC(=O)c3ccc(S(=O)(=O)N4CCOCC4)cc3)nc12 |  | inconclusive: -7.67% [inhibitor] |
| CCOc1ccc(C(=O)N/N=C/c2cc(Cl)ccc2[N+](=O)[O-])cc1 | inconclusive [inhibitor, full curve] |  |
| COC(=O)CNC(=O)c1cccc(-c2ccc(OC)cc2)c1 | inconclusive [inhibitor, single point] |  |
| C[C@H]1[C@@H](c2ccccc2)Oc2ccc(Cl)cc2S(=O)(=O)N1Cc1ccc(F)cc1F | inconclusive [inhibitor, single point] |  |
| Cc1ccc(N(C)C(=O)CC(C)S(=O)(=O)c2ccc3c(c2)NC(=O)CO3)cc1 (stereo not drawn) | inconclusive [inhibitor, single point] |  |
| CCCCCc1c(Cc2ccccc2)ncn1CCc1ccccc1OC |  | inactive: -18.1% |
| COc1ccccc1OCCN1C(=O)S/C(=C\c2ccco2)C1=O | inconclusive [inhibitor, partial curve, poor fit] |  |
| O=C1CN(C(=O)c2c(F)cccc2F)C(c2ccccc2)c2cc(Br)ccc2N1 (stereo not drawn) | inconclusive [inhibitor, partial curve] |  |
| CCN1CCN(Cc2ccc(NC(=O)c3ccc(C)c(NC(=O)C(=O)c4c[nH]c5ccccc45)c3)cc2C(F)(F)F)CC1 | inconclusive [inhibitor, single point] |  |
| CN(C)CCNC(=O)c1cccc(S(=O)(=O)Nc2ccc(F)cc2)c1 | inconclusive [inhibitor, full curve, poor fit] |  |
| COc1cc(/C=N/NC(=O)NC23CC4CC(CC(C4)C2)C3)ccc1O | inconclusive [inhibitor, single point] |  |
| COc1cc2ccccc2nn1 | inconclusive [inhibitor, full curve, poor fit] |  |
| Cc1nc(Cl)sc1C(=O)Nc1cc(F)cc(F)c1 | inconclusive [inhibitor, full curve, poor fit] |  |
| CCOc1ccccc1C(=O)Nc1nn[nH]n1 | inconclusive [inhibitor, single point] |  |
| O=C(C[C@@H]1CC[C@@H](NC(=O)Nc2cccc(F)c2)[C@@H](CO)O1)NCC1CCCCC1 |  | inactive: -10.1% |
| O=c1c2ccccc2c(C=Nc2ccc(O)cc2)c(O)n1-c1nccs1 | inconclusive [inhibitor, partial curve] |  |
| Cc1ccc(Cl)cc1NC(=S)N(CCCN1CCN(C)CC1)Cc1cccs1 | inconclusive [inhibitor, single point] |  |
| O=C(N/N=C/C(Cl)=C/c1ccccc1)c1ccccc1F | inconclusive [inhibitor, single point] |  |
| Cc1ccc(OCc2ccc(C(=O)Nc3ccc(C(N)=O)cc3)o2)c([N+](=O)[O-])c1 | inconclusive [inhibitor, partial curve] |  |
| CCOC(=O)C(NC(=O)c1ccccc1)(Nc1nnc(C)s1)C(F)(F)F (stereo not drawn) | inconclusive [inhibitor, full curve, poor fit] |  |

| Compound | Potency | activity change, negative = inhibition |
| --- | --- | --- |
| Cc1cc2c(cc1C)-c1c(ssc1=Nc1ccc(S(N)(=O)=O)cc1)C(C)(C)N2 | inconclusive [inhibitor, partial curve, poor fit] |  |
| O=C(CCN1C(=O)S/C(=C/c2ccccc2)C1=O)Nc1ccc(O)c(C(=O)O)c1 |  | inconclusive: -16.8% [inhibitor] |
| O=c1c2cc([N+](=O)[O-])cc([N+](=O)[O-])c2[nH]n1-c1ccccc1 | inconclusive [inhibitor, partial curve] |  |
| O=Cc1cccc(OCc2cccc3ccccc23)c1 |  | inactive: -6.54% |
| S=C(NCc1ccccc1)N1CCc2ccccc2C1 |  | inactive: -27.8% |
| CCNc1ccc(Br)cc(C(=O)/C=C/c2ccc(Cl)cc2Cl)c1=O |  | inactive: -23.4% |
| O=C(O)c1ccccc1C(=O)Nc1n[nH]c(=S)s1 |  | inactive: 5.06% |
| Cc1cc(C(=O)O)ccc1-n1c(C)cc(/C=C(/C#N)C(=O)Nc2ccccc2)c1C |  | inconclusive: -16% [inhibitor] |
| Cn1c(=O)n(C)c2cc(NS(=O)(=O)c3ccc(C(C)(C)C)cc3)ccc21 | inconclusive [inhibitor, partial curve, poor fit] |  |
| CC(=O)N/C(=N/c1nc(C)cc(C)n1)Nc1cccc(C)c1 | inconclusive [inhibitor, single point] |  |
| CC1CN(CCOc2ccccc2-c2ccccc2)CC(C)O1 (stereo not drawn) | inconclusive [inhibitor, single point] |  |
| S=C(NCCc1cccc(Cl)c1)NC1CCCCC1 |  | inactive: -17.9% |
| CCC1(CC)NC(=O)N(CC(=O)Nc2sc3c(c2C(N)=O)CCC3)C1=O | inconclusive [inhibitor, partial curve] |  |
| COc1ccccc1Oc1ccc2c(c1)C(=O)N(c1cccc3ncccc13)C2=O | inconclusive [inhibitor, partial curve] |  |
| CCNC(=S)N(CCc1cccc(C)c1)Cc1cc2cc(OC)c(OC)cc2[nH]c1=O | inconclusive [inhibitor, single point] |  |
| COc1ccccc1NS(=O)(=O)c1cccc(C(=O)OCC(=O)NC2CC2)c1 |  | inactive: 4.46% |
| COc1ccc(-c2cc(C)no2)cc1S(=O)(=O)N1CCN(c2ccccn2)CC1 | inconclusive [inhibitor, partial curve, poor fit] |  |
| COC(=O)c1c(C)[nH]c(C)c1-c1ccc([N+](=O)[O-])cc1 | inconclusive [inhibitor, partial curve] |  |
| Cc1cccc(NC(=O)COc2ccc(/C=C\c3[nH]c(=O)[nH]c(=O)c3[N+](=O)[O-])cc2)c1 | inconclusive [inhibitor, partial curve] |  |
| CN(Cc1ccco1)c1ncnc2ccc(-c3ccccc3Cl)cc12 | inconclusive [inhibitor, single point] |  |
| C[C@H](NC(=O)c1ccccc1)C(=O)OCC(=O)Nc1ccc2c(c1)OCO2 | inconclusive [inhibitor, single point] |  |
| O=C(Nc1ccc(-n2cccn2)cc1)C1CCCCN1Cc1cccc2cccnc12 (stereo not drawn) | inconclusive [inhibitor, full curve] |  |
